Experimental data as given in the supplement of paper PMC4967469.

Columns and labels:
Assay in all cases: Viability of human cancer cell lines after 72 h of drug (GDSC screen)
[1] = compound: COc1cc2nccc(Oc3ccc(NC(=O)Nc4cc(C)on4)c(Cl)c3)c2cc1OC [AV-951]; details: top dose 0.128 µM; top dose inferred
Experimental: (§1)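 Human cancer cell lines in 384-well plates, medium with 10% serum, drug for 72 h over a 256-fold dose range (nine 2-fold or five 4-fold steps up to the top dose). Adherent lines were fixed and stained with the nucleic acid dye Syto60, suspension lines read with resazurin; signal relative to control wells, capped at 0 and 100%. One two-parameter sigmoid per drug and line, fitted in a mixed model over all curves with the slope shared within a line.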

[2] = compound: O=C(NC(COc1ccc2[nH]c(=O)[nH]c2c1)c1ccccc1)c1cccn(Cc2ccc(F)c(F)c2)c1=O [KIN001-244]; details: top dose 20 µM; top dose inferred
Experimental: as §1

[3] = compound: CC(=O)Nc1cccc(-n2c(=O)n(C3CC3)c(=O)c3c(Nc4ccc(I)cc4F)n(C)c(=O)c(C)c32)c1 [Trametinib]; details: top dose 1 µM
Experimental: as §1

[4] = compound: CCNC(=O)C[C@@H]1N=C(c2ccc(Cl)cc2)c2cc(OC)ccc2-n2c(C)nnc21 [I-BET-762]; details: top dose 20 µM; top dose inferred
Experimental: as §1

[5] = compound: CCN1CCN(Cc2ccc(NC(=O)c3ccc(C)c(/C=C/c4cnc5[nH]ccc5c4OC)c3)cc2C(F)(F)F)CC1 [HG-6-64-1]; details: top dose 5.12 µM; top dose inferred
Experimental: as §1

[6] = compound: CCc1cncnc1N1CCN(Cc2nc3ccc(C(F)(F)F)cc3[nH]2)CC1 [PF-4708671]; details: top dose 10 µM; top dose inferred
Experimental: as §1

EN (endometrium, adherent)
AUC [1]: 0.97
IC50 [1]: > 128 nM
AUC [2]: 0.88
IC50 [2]: > 20000 nM
AUC [3]: 0.972
IC50 [3]: > 1000 nM
AUC [4]: 0.972
IC50 [4]: > 20000 nM
AUC [5]: 0.982
IC50 [5]: > 5120 nM
AUC [6]: 0.974
IC50 [6]: > 10000 nM

EPLC-272H (lung squamous cell carcinoma, adherent)
AUC [1]: 0.981
IC50 [1]: > 128 nM
AUC [2]: 0.871
IC50 [2]: > 20000 nM
AUC [3]: 0.308
IC50 [3]: 16.7 nM
AUC [4]: 0.953
IC50 [4]: > 20000 nM
AUC [5]: 0.849
IC50 [5]: 4650 nM
AUC [6]: 0.979
IC50 [6]: > 10000 nM

ESS-1 (endometrium, adherent)
AUC [1]: 0.985
IC50 [1]: > 128 nM
AUC [2]: 0.99
IC50 [2]: > 20000 nM
AUC [3]: 0.844
IC50 [3]: 612 nM
AUC [4]: 0.97
IC50 [4]: > 20000 nM
AUC [5]: 0.701
IC50 [5]: 1100 nM
AUC [6]: 0.988
IC50 [6]: > 10000 nM

EW-7 (Ewing sarcoma, semi-adherent)
AUC [1]: 0.988
IC50 [1]: > 128 nM
AUC [2]: 0.777
IC50 [2]: 7040 nM
AUC [3]: 0.978
IC50 [3]: > 1000 nM
AUC [4]: 0.966
IC50 [4]: > 20000 nM
AUC [5]: 0.812
IC50 [5]: 2330 nM
AUC [6]: 0.977
IC50 [6]: > 10000 nM

FTC-133 (thyroid, adherent)
AUC [1]: 0.983
IC50 [1]: > 128 nM
AUC [2]: 0.965
IC50 [2]: > 20000 nM
AUC [3]: 0.734
IC50 [3]: 314 nM
AUC [4]: 0.986
IC50 [4]: > 20000 nM
AUC [5]: 0.957
IC50 [5]: > 5120 nM
AUC [6]: 0.947
IC50 [6]: > 10000 nM

FU97 (stomach, adherent)
AUC [1]: 0.985
IC50 [1]: > 128 nM
AUC [2]: 0.879
IC50 [2]: > 20000 nM
AUC [3]: 0.728
IC50 [3]: 284 nM
AUC [4]: 0.949
IC50 [4]: > 20000 nM
AUC [5]: 0.663
IC50 [5]: 920 nM
AUC [6]: 0.836
IC50 [6]: 6890 nM

G-361 (melanoma, adherent)
AUC [1]: 0.988
IC50 [1]: > 128 nM
AUC [2]: 0.832
IC50 [2]: 12100 nM
AUC [3]: 0.107
IC50 [3]: < 3.91 nM
AUC [4]: 0.914
IC50 [4]: > 20000 nM
AUC [5]: 0.654
IC50 [5]: 837 nM
AUC [6]: 0.688
IC50 [6]: 2040 nM

G-401 (kidney, adherent)
AUC [1]: 0.979
IC50 [1]: > 128 nM
AUC [2]: 0.822
IC50 [2]: 13100 nM
AUC [3]: 0.699
IC50 [3]: 242 nM
AUC [4]: 0.847
IC50 [4]: 16900 nM
AUC [5]: 0.62
IC50 [5]: 708 nM
AUC [6]: 0.927
IC50 [6]: > 10000 nM

G-402 (soft tissue, adherent)
AUC [1]: 0.814
IC50 [1]: 101 nM
AUC [2]: 0.813
IC50 [2]: 15600 nM
AUC [3]: 0.755
IC50 [3]: 445 nM
AUC [4]: 0.892
IC50 [4]: > 20000 nM
AUC [5]: 0.39
IC50 [5]: 144 nM
AUC [6]: 0.921
IC50 [6]: > 10000 nM

GAK (melanoma, adherent)
AUC [1]: 0.989
IC50 [1]: > 128 nM
AUC [2]: 0.885
IC50 [2]: > 20000 nM
AUC [3]: 0.105
IC50 [3]: < 3.91 nM
AUC [4]: 0.971
IC50 [4]: > 20000 nM
AUC [5]: 0.878
IC50 [5]: 4770 nM
AUC [6]: 0.985
IC50 [6]: > 10000 nM

GAMG (glioma, adherent)
AUC [1]: 0.979
IC50 [1]: > 128 nM
AUC [2]: 0.845
IC50 [2]: 15500 nM
AUC [3]: 0.813
IC50 [3]: 573 nM
AUC [4]: 0.954
IC50 [4]: > 20000 nM
AUC [5]: 0.73
IC50 [5]: 1500 nM
AUC [6]: 0.905
IC50 [6]: > 10000 nM

GCT (soft tissue, adherent)
AUC [1]: 0.989
IC50 [1]: > 128 nM
AUC [2]: 0.989
IC50 [2]: > 20000 nM
AUC [3]: 0.877
IC50 [3]: 886 nM
AUC [4]: 0.989
IC50 [4]: > 20000 nM
AUC [5]: 0.545
IC50 [5]: 421 nM
AUC [6]: 0.956
IC50 [6]: > 10000 nM

GP5d (large intestine, adherent)
AUC [1]: 0.991
IC50 [1]: > 128 nM
AUC [2]: 0.937
IC50 [2]: > 20000 nM
AUC [3]: 0.898
IC50 [3]: > 1000 nM
AUC [4]: 0.895
IC50 [4]: 19800 nM
AUC [5]: 0.649
IC50 [5]: 790 nM
AUC [6]: 0.984
IC50 [6]: > 10000 nM

H4 (glioma, adherent)
AUC [1]: 0.978
IC50 [1]: > 128 nM
AUC [2]: 0.908
IC50 [2]: > 20000 nM
AUC [3]: 0.803
IC50 [3]: 491 nM
AUC [4]: 0.983
IC50 [4]: > 20000 nM
AUC [5]: 0.718
IC50 [5]: 1310 nM
AUC [6]: 0.928
IC50 [6]: > 10000 nM

H513 (mesothelioma, semi-adherent)
AUC [1]: 0.981
IC50 [1]: > 128 nM
AUC [2]: 0.981
IC50 [2]: > 20000 nM
AUC [3]: 0.606
IC50 [3]: 130 nM
AUC [4]: 0.972
IC50 [4]: > 20000 nM
AUC [5]: 0.975
IC50 [5]: > 5120 nM
AUC [6]: 0.986
IC50 [6]: > 10000 nM

H2369 (mesothelioma, adherent)
AUC [1]: 0.986
IC50 [1]: > 128 nM
AUC [2]: 0.912
IC50 [2]: > 20000 nM
AUC [3]: 0.778
IC50 [3]: 420 nM
AUC [4]: 0.969
IC50 [4]: > 20000 nM
AUC [5]: 0.324
IC50 [5]: 101 nM
AUC [6]: 0.966
IC50 [6]: > 10000 nM

H2373 (mesothelioma, adherent)
AUC [1]: 0.972
IC50 [1]: > 128 nM
AUC [2]: 0.772
IC50 [2]: 9780 nM
AUC [3]: 0.725
IC50 [3]: 327 nM
AUC [4]: 0.98
IC50 [4]: > 20000 nM
AUC [5]: 0.803
IC50 [5]: 3360 nM
AUC [6]: 0.975
IC50 [6]: > 10000 nM

H2461 (mesothelioma, adherent)
AUC [1]: 0.983
IC50 [1]: > 128 nM
AUC [2]: 0.952
IC50 [2]: > 20000 nM
AUC [3]: 0.79
IC50 [3]: 571 nM
AUC [4]: 0.971
IC50 [4]: > 20000 nM
AUC [5]: 0.859
IC50 [5]: > 5120 nM
AUC [6]: 0.983
IC50 [6]: > 10000 nM

A lower IC50 marks a more sensitive line; a fit beyond the top or the lowest dose is shown as a bound at that dose. AUC sums up the same curve from the lowest dose to the 256-fold higher top dose; it is 1 without any effect and falls as sensitivity rises. For part of these data: Where the top dose is marked as inferred, it comes from the curve model; the source does not state it.
